Experimental data: PubChem BioAssay AID686979 (National Center for Advancing Translational Sciences (NCATS), 2013)
About 50,000 (12%) of roughly 420,000 compounds were called active. The shares of active, inactive and inconclusive entries below differ from those in the screen. The call rests on the fitted dose curve; in most records, active means well fitted inhibition curve with a large enough effect; inconclusive means small, poorly fitted or top-dose-only effect; inactive means flat fitted curve, though single readings scatter. Potencies of inconclusive entries are left out as doubtful fits.

Test: qHTS for Inhibitors of human tyrosyl-DNA phosphodiesterase 1 (TDP1): qHTS in cells in presence of CPT; further: nearly all actives have a fitted effect of over 55% in size
Conditions: chicken DT40 Tdp1-/-;hTDP1 cells + 20 nM CPT, ATP luminescence, 48 h; activity change, negative = growth inhibition: at 46.2 µM (top of the series) unless noted
In short: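 Chicken DT40 Tdp1-/- cells stably complemented with human TDP1 were seeded at 400 cells/well in medium containing 20 nM camptothecin, exposed to pin-transferred compounds, and grown at 37 °C for at least 48 hr. Viability was read as ATP luminescence.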
On the % scale 0 is the no-effect control and ±100 the full control effect; potency means the concentration at half of the fitted maximal effect; tags describe the fitted curve by direction and shape.

**Q.** Which Potency does the source give for `COc1ccc(/C=C/C(=O)c2ccc(C)s2)cc1` here?
**A.** inconclusive [inhibitor, full curve, poor fit]

**Q.** With `CCOc1cc(C2c3c(oc4ccccc4c3=O)C(=O)N2Cc2ccc3c(c2)OCO3)ccc1O` (stereo not given) as the molecule, how does the Potency read?
**A.** inconclusive [inhibitor, single point]

**Q.** Which Potency does the source give for `Cc1ccc(-n2ncc(C(=O)Nc3ccc(C)c(F)c3)c2C2CCN(C(=O)OC(C)(C)C)CC2)cc1C` here?
**A.** inconclusive [inhibitor, single point]

**Q.** With `O=C(CSc1ccc(-c2ccco2)nn1)Nc1cccc(F)c1` as the molecule, how does the Potency read?
**A.** inconclusive [inhibitor, single point]

**Q.** Which Potency does the source give for `COc1ccccc1C(=O)Nc1ccnn1C1CCN(Cc2ccc3nonc3c2)CC1` here?
**A.** inconclusive [inhibitor, single point]

**Q.** With `CC(=O)Nc1ccc(C2=NNC(=Nc3ccc(S(=O)(=O)N4CCOCC4)cc3)SC2)cc1` as the molecule, how does the Potency read?
**A.** inconclusive [inhibitor, single point]

**Q.** With `COc1cccc(N2CCN(c3nc4ccc(C(=O)c5ccccc5)cc4n4c(C)nnc34)CC2)c1` as the molecule, how does the Potency read?
**A.** inconclusive [inhibitor, single point]

**Q.** With `NC(=O)c1nsc(C(=O)N(c2ccc(F)cc2)C(C(=O)NCC2CCCO2)c2c[nH]c3ccccc23)c1N` (stereo not given) as the molecule, how does the Potency read?
**A.** inconclusive [inhibitor, single point]

**Q.** Which Potency does the source give for `COc1cccc(/C=N/NC(=O)CC(C)O)c1OC/C=C/c1ccccc1` (stereo not given) here?
**A.** inconclusive [inhibitor, single point]

**Q.** With `O=C(COc1cc2oc(=O)c3c(c2cc1Cl)CCC3)NCC(O)c1ccccc1` (stereo not given) as the molecule, how does the Potency read?
**A.** inconclusive [inhibitor, single point]

**Q.** With `Cc1ccc(NC(=O)c2cc(C)n(-c3ccccc3)c2C)cc1` as the molecule, how does the Potency read?
**A.** inconclusive [inhibitor, partial curve, poor fit]

**Q.** Which Potency does the source give for `CCN(CC)CCCN=C1N[C@@H](c2cccc(C(F)(F)F)c2)C(C(=O)OC)=C(C)N1CC` here?
**A.** inconclusive [inhibitor, single point]

**Q.** For `CCc1ccccc1NC(=O)CSc1nnc([C@@H]2CCCN2C(=O)OC(C)(C)C)o1`, which Potency is on record?
**A.** inconclusive [inhibitor, single point]

**Q.** For `CN(C)c1ccc(CN(C(=O)c2ccc(Cl)c([N+](=O)[O-])c2)C2CCS(=O)(=O)C2)cc1` (stereo not given), which Potency is on record?
**A.** inconclusive [inhibitor, partial curve, poor fit]

**Q.** With `Cc1ccccc1NC(=O)c1nc(-c2ccncc2)no1` as the molecule, how does the “activity change, negative = growth inhibition” value read?
**A.** inactive: 5.08%

**Q.** For `Cc1nc2ccccc2c2oc(C(=O)NCCCN3CCCC(C)C3)cc12` (stereo not given), which Potency is on record?
**A.** inconclusive [inhibitor, single point]

**Q.** Which Potency does the source give for `C/C=C/n1ccnc1CC(O)(c1ccccc1)c1ccc(C)cc1` (stereo not given) here?
**A.** inconclusive [inhibitor, single point]

**Q.** For `CCC(C(=O)OCc1cc(=O)n2nc(CCOC)sc2n1)c1ccccc1` (stereo not given), which Potency is on record?
**A.** inconclusive [inhibitor, single point]

**Q.** Which Potency does the source give for `COC(=O)C(C)Sc1nc2c([nH]c3ccccc32)c(=O)n1-c1ccc(OC)cc1` (stereo not given) here?
**A.** inconclusive [inhibitor, partial curve]

**Q.** With `COC(=O)C1CCCN1C(=O)COc1ccc(Cl)cc1Br` (stereo not given) as the molecule, how does the Potency read?
**A.** active: 18.4 µM

**Q.** For `COc1cc(NC(=O)c2c(OC)cccc2OC)ccc1NC(=O)c1cc2ccccc2o1`, which Potency is on record?
**A.** active: 10.3 µM

**Q.** Which Potency does the source give for `c1ccc(OCCNc2ccn3nc(-c4ccccc4)cc3n2)cc1` here?
**A.** inconclusive [inhibitor, single point]

**Q.** With `COc1ccccc1Oc1coc2cc(OC(=O)N3CCOCC3)ccc2c1=O` as the molecule, how does the Potency read?
**A.** inconclusive [inhibitor, partial curve]

**Q.** Which Potency does the source give for `COc1cc(-c2nc3cnccn3c2NC(C)(C)CC(C)(C)C)ccc1O` here?
**A.** inconclusive [inhibitor, single point]

**Q.** Which Potency does the source give for `CCc1ccc(NC(=S)/N=C(\N)Nc2nc(C)c3cc(CC)ccc3n2)cc1` here?
**A.** inconclusive [inhibitor, single point]

**Q.** With `Cc1cc2nc(CCN3CCOCC3)n(S(=O)(=O)c3ccc(C(C)(C)C)cc3)c2cc1C` as the molecule, how does the Potency read?
**A.** active: 18.4 µM

**Q.** Which Potency does the source give for `O=[N+]([O-])c1ccc2nc(-c3ccccn3)[nH]c2c1` here?
**A.** active: 0.651 µM

**Q.** With `O=C1C(Cl)=C(NCc2cccnc2)C(=O)c2ccccc21` as the molecule, how does the Potency read?
**A.** active: 13 µM

**Q.** For `COc1cccc(NC(=O)CSCc2nc3sc(C)c(C)c3c(=O)[nH]2)c1`, which “activity change, negative = growth inhibition” value is on record?
**A.** inactive: -12.3%

**Q.** With `CN1CCN(C(=O)c2ccccc2NC(=O)c2sc3ccccc3c2Cl)CC1` as the molecule, how does the Potency read?
**A.** inconclusive [inhibitor, single point]

**Q.** For `Cc1noc(C)c1C(=O)N1CCC2(CC1)CN(c1ccccc1)C2`, which Potency is on record?
**A.** inconclusive [inhibitor, single point]

**Q.** With `Cc1cc(-c2ccccc2)nc(N/N=C/c2ccc([N+](=O)[O-])cc2)n1` as the molecule, how does the Potency read?
**A.** inconclusive [inhibitor, single point]

**Q.** With `Cc1n[nH]c(=S)n1/N=C/c1ccc(OCc2ccc(Cl)cc2)cc1` as the molecule, how does the Potency read?
**A.** inconclusive [inhibitor, single point]

**Q.** For `CCN(CC)S(=O)(=O)c1ccc(C(=O)Nc2nnc(C(C)C)s2)cc1`, which “activity change, negative = growth inhibition” value is on record?
**A.** inactive: -7.08%

**Q.** Which Potency does the source give for `Cc1ccc2c(c1)N(C(=O)CCC(=O)NC1CCCCCC1)CC(C)O2` (stereo not given) here?
**A.** inconclusive [inhibitor, single point]

**Q.** For `Cc1c(OC(C)C(=O)NCc2ccncc2)ccc2c3c(c(=O)oc12)CCC3` (stereo not given), which Potency is on record?
**A.** inconclusive [inhibitor, single point]

**Q.** With `COc1ccc(OC)c(NC(=O)c2cccc(NC(=O)c3ccco3)c2)c1` as the molecule, how does the Potency read?
**A.** inconclusive [inhibitor, single point]

**Q.** With `CCOC(=O)c1c(NC(=O)COC(=O)c2c(C)noc2C)sc2c1CCC2` as the molecule, how does the “activity change, negative = growth inhibition” value read?
**A.** inactive: -27.8%

**Q.** Which Potency does the source give for `COc1cc(Cl)c(C)cc1NC(=O)c1cn(CC(C)C)c(=O)c2cc(OC)c(OC)cc12` here?
**A.** inconclusive [inhibitor, partial curve]

**Q.** With `Cc1cccc(Cn2c(NC3CCCC3)nc3c2c(=O)[nH]c(=O)n3C)c1` as the molecule, how does the Potency read?
**A.** inconclusive [inhibitor, single point]

**Q.** For `CCN(CC)C(=O)CSc1nc2cc3c(cc2c(=O)n1Cc1ccc(C(=O)NCCc2ccc(OC)c(OC)c2)cc1)OCO3`, which Potency is on record?
**A.** active: 13 µM

**Q.** For `CN(C(=O)COC(=O)c1ccccc1Nc1ccccc1)c1c(N)n(Cc2ccccc2)c(=O)[nH]c1=O`, which Potency is on record?
**A.** inconclusive [inhibitor, single point]

**Q.** For `Cc1sc2ncn(CC(=O)NCC(=O)N(C)Cc3ccccc3)c(=O)c2c1C`, which Potency is on record?
**A.** inconclusive [inhibitor, single point]

**Q.** Which Potency does the source give for `CC(C)NC(=O)N1Cc2cc(C(=O)NC3CCCC3)nc(-c3cccc(-c4cccnc4)c3)c2[C@@H]1CCO` here?
**A.** inconclusive [inhibitor, single point]

**Q.** For `Cc1cccc(NC(=O)N2CCC(NC(=O)c3ccccc3C)CC2)c1`, which Potency is on record?
**A.** inconclusive [inhibitor, full curve, poor fit]

**Q.** Which “activity change, negative = growth inhibition” value does the source give for `CC(=O)N(c1ccc(N(C(C)=O)S(=O)(=O)c2ccccc2)cc1)S(=O)(=O)c1ccccc1` here?
**A.** inactive: -11.6%

**Q.** Which “activity change, negative = growth inhibition” value does the source give for `O=C(CCNC(=O)c1ccc(Cl)cc1)Nc1nc2ccccc2[nH]1` here?
**A.** inactive: -0.867%

**Q.** For `COc1ccc(SCCCn2c(=O)c3c(ncn3C)n(C)c2=O)cc1`, which Potency is on record?
**A.** inconclusive [inhibitor, partial curve]

**Q.** For `O=C(NCc1cccs1)c1ccc(CS(=O)Cc2ccccc2Cl)o1` (stereo not given), which “activity change, negative = growth inhibition” value is on record?
**A.** inactive: -4.56%

**Q.** For `Cc1cc(Nc2cccc(Cl)c2C)n2nc(Cc3ccccc3)nc2n1`, which Potency is on record?
**A.** inconclusive [inhibitor, single point]

**Q.** For `CCCN1C(=O)/C(=C/c2ccc(C)s2)SC1=Nc1ccc(OC)cc1`, which Potency is on record?
**A.** inconclusive [inhibitor, partial curve]

**Q.** For `COc1ccc(CNC(=O)CCCn2c(SCC(N)=O)nc3cc4c(cc3c2=O)OCO4)cc1`, which “activity change, negative = growth inhibition” value is on record?
**A.** inactive: -13.1%

**Q.** With `O=C(NC(=S)Nc1cccc(C(F)(F)F)c1)c1ccc2nonc2c1` as the molecule, how does the Potency read?
**A.** inconclusive [inhibitor, partial curve]

**Q.** Which Potency does the source give for `CN(C)c1ccc(NC(=O)c2ccc(Cn3cc([N+](=O)[O-])cn3)cc2)cc1` here?
**A.** inconclusive [inhibitor, single point]

**Q.** For `CCC(=O)Oc1ccc(-c2nc(-c3cccnc3)no2)cc1`, which “activity change, negative = growth inhibition” value is on record?
**A.** inactive: -29.6%

**Q.** Which “activity change, negative = growth inhibition” value does the source give for `COc1ccc(C(=O)Cn2cnc3ccccc3c2=O)cc1` here?
**A.** inactive: 16.2%

**Q.** For `CC1=NN(C(=O)c2ccoc2C)C(O)(C(F)(F)F)C1` (stereo not given), which Potency is on record?
**A.** active: 2.91 µM

**Q.** Which Potency does the source give for `CCOC(=O)c1c(C)n(-c2ccccc2)c2ccc(OCCN(C)C)cc12` here?
**A.** inconclusive [inhibitor, single point]

**Q.** With `COC(=O)[C@@]12C[C@@H](CC(=O)N3CCN(C(=O)c4ccco4)CC3)C(=O)N(Cc3ccccc3)C1=CCC(C)(C)C2` as the molecule, how does the Potency read?
**A.** inconclusive [inhibitor, single point]

**Q.** With `Cc1c(CCC(=O)O)c(=O)oc2c(C)c3occ(-c4ccc(Cl)cc4)c3cc12` as the molecule, how does the Potency read?
**A.** inconclusive [inhibitor, single point]

**Q.** For `Cc1ccc(C2=N/C(=C\c3cccs3)C(=O)N2Nc2ccccc2)cc1`, which Potency is on record?
**A.** inconclusive [inhibitor, single point]

**Q.** Which Potency does the source give for `O=C(CN1CCCCCC1)N1c2ccccc2Sc2ccc(C(F)(F)F)cc21` here?
**A.** inconclusive [inhibitor, single point]

**Q.** Which activity change, negative = growth inhibition does the source give for `Cc1ccc(C)c(N=Cc2cc3c(cc2[N+](=O)[O-])OCO3)c1` here?
**A.** inconclusive: -30.1% [inhibitor]

**Q.** Which “activity change, negative = growth inhibition” value does the source give for `CC(c1ccccc1)N1C(=O)C2C3CCC(C3)C2C1=O` (stereo not given) here?
**A.** inactive: -19.1%

**Q.** For `COCCCn1c(=N)c(C(N)=S)cc2c(=O)n3cccc(C)c3nc21`, which Potency is on record?
**A.** active: 18.4 µM
